According to the RNAGym collection of RNA variant scans (doi:10.7554/elife.90254):
Read counts are not given, so values of variants with three or more changes are uncertain.

B1: LINE1-mini (parent)
chain: GGCAGAGCUCAACACAGCGUGGCAAAGUGGCUGUGGCUAGACUGCC

Variants of: B1
Experiment: self-cleavage, relative activity (ratio to wild type); higher = more cleavage; in vitro, sequencing; the parent is a self-cleaving ribozyme

Variant	self-cleavage
GGCAGAGCUCGACACAGCGUGGCAAAGUGGAUGUGGCUAGACGGCC	0.02
GGCAGAGCUCGUCACAGCAUGGCAAAGUGGCUGUGGCUAGACUGCC	0.02
GGCAGAGCUCGACUCAGCGUGGCAGAGAGGCUGUGGCUGGUCUGCU	0
GGCAGAGCUCGUCACUGCGUAGCAAAGUGGCUGUGGCUAGACUGCC	0
GGCAGAGCUCGACAAAGCGUGGCAAAGUAGCGGUGGCUAGACUGCC	0
GGCAGAGCUCGACAUAGCGUGGCAAAGUGGCUGUGGCUCGACUGCC	0
GGCAGAGCUCGAAACAGCGUGGCAAAGUGGCUGUGGCCAGACUGCC	0
GGCAGAGCUCGACACAGCGUGGCUAAGUGGCUGUGGUUGGACUGCC	0.01
GGCAGAGCUCGACACAGGGUGGCAAAGUGGCAGUGACUAGACUGCC	0
GGCAGAGCUCGACACAGAGUGUCAAAGUUGCUGUGGCUAGUGUGCC	0
GGCAGAGCUCGACAAAACAUGGCAAAGUGGCUGUGGCUAGACUGCC	0.02
GGCAGAGCUCGACACAGCGUGGAAAAAUGGCUGUGGCUAGACUACC	0.02
GGCAGAGCUCGAAACACCGUGGCAAAGUAGUUGUGGCUAGACUGCC	0.01
GGCAGAGCUCGUCACAGCGUGGCAAAGUGGGUGUGGCUAGACUGCC	0.01
GGCAGAGCUCGAUACAGCUUGGCAAAGUGGCUGUGGCUAGACUGCC	0.01
GGCAGAGCUCGUCACAGCGUGCCAAAGUGGAGGUGGUUAGACAGCC	0
GGCAGAGCUCGACUCAGCGUGGCAAAGUGGCUGUGGCUAGAUUGCC	0.02
GGCAGAGCUCGACACACCGUUGCAAAGUGGCUGUGGCCAGACUGCC	0.01
GGCAGAGCUCGACACAGUGUGGCAUAGUGGCUGUGGCUAGACUGCC	0.01
GGCAGAGCUCGACACACCUUGGGAAACUGGCCGUGGCUAGACUGUC	0.02
GGCAGAGCUCGACACAUCGUGGCAAAAUCGCUGUGGCUAGACUGCC	0.02
GGCAGAGCUCGACACAGCGUGGAAAAGUGGCUGUGGCUAGGCUGCC	0.02
GGCAGAGCUCGACACAACGUCGCAAGGUGGCUGUGGCUAGAUCACC	0.01

Variant	self-cleavage
GGCAGAGCUCGACAACGCAUGGCAAAGUGGCUGUGGCUAGACUGUC	0.01
GGCAGAGCUCGACACAACGUGGCAAAGUGGCUGUGGAUAGACUGCC	0.06
GGCAGAGCUCGUCGCAGCGUGACAAAGUGGCUGUGGCUAGACUGCC	0
GGCAGAGCUCGACACAGCGUGGCAUAGUUGCUGUGGCUAGACUGCC	0.02
GGCAGAGCUCGACACCGCGUGGCAAAGUGGCUGUGGCUAGACUGGC	0.03
GGCAGAGCUCGACACAGAGUGGCAAAGUGGGUGUGGCUCGAAUGCC	0
GGCAGAGCUCGACAAAGCAUGGCAAAGUGGCGGUGGCUAGAUUGCC	0.03
GGCAGAGCUCGACACAGCGUGGCAGCGUCGCUGUGGCUAGACUGCC	0.04
GGCAGAGCUCGACACAGCGUGGCCAAGUCGCUGUGGCUAGACUGCC	0.01
GGCAGAGCUCGACACAGACUGGCAAAGUGGCUGUGGCUAGACUGCC	0.01
GGCAGAGCUCGACACAGCAUGGCAAAGUGGUUGUGGCUUGACUGCC	0.02
GGCAGAGCUCGACACAGCGUGGCAAAGUGGCUGUGGAUAGACUGCU	0.01
GGCAGAGCUCGACAAAGCGUGGCAAAGUGGCUGUGGCGAGACUGCC	0.02
GGCAGAGCUCGACACAGCGUGGCAAAGUGGAUGUGGGUAGACUGCA	0
GGCAGAGCUCGACACAGCGUGGCAAAGUGGAUGUGGCUACACUGCC	0.01
GGCAGAGCUCGAAACAGCGUGGCAAAGUGGCUGUGGCUAAACUGCC	0.02
GGCAGAGCUCGGCACAGGGUGGCGAAGUGGCUGUGGCUAGACUGCC	0.01
GGCAGAGCUCGUCACAGCGUGGCAAAGUGGCUGUGGCUAGAAUGCC	0.01
GGCAGAGCUCGACAUAGCGUGGCAAAGUGGCUGUGGAUAGACUGCC	0.02
GGCAGAGCUCGUCACAGCGUGGCAUAGUGGCUGUGGCUAGACUGCC	0.05
GGCAGAGCUCGACACACCGUGGCAAAGUUGCUGUGGGUCGACUGCC	0
GGCAGAGCUCGACACAUCGUGGCAACGUGGCUGUGGCUAGACUGCC	0.04
GGCAGAGCUCGACACAGCGUGGCAAAGUGGCUGUGGAUCGACUGCC	0

Variant	self-cleavage
GGCAGAGCUCGACACACCUUGGCAAAGUGGGUGUGGCUAGACUGCC	0.02
GGCAGAGCUCGUCACAGCGUGCCGAAGUGGCUGUGGGUAGACUGCC	0.02
GGCAGAGCUCGAGAGAGGGUGUCAAAGUGGCUGUGGCUAGACUGCC	0.01
GGCAGAGCUCGCCACAGCUUGGCAAAGUGGCUGUGGUUAGACUGCC	0
GGCAGAGCUCGACACGGCGGGGCAAAGUGGCUGUGGCUAGACUACC	0.01
GGCAGAGCUCGACACAGGGUGGCGAAGUGGCCGUGACUAGAGUGCC	0
GGCAGAGCUCGACACGGCGUGGCAAUGUGGCUGUUGUUAGACUGCC	0.02
GGCAGAGCUCGACACAGCGUGGCAAAGUGGUCGUGACUAAACUGCC	0
GGCAGAGCUCGCCACUGCAUAGCAAAGUGGCUGUGGCUAGACUGCC	0.02
GGCAGAGCUCGACACAGCGUGGCAAAGUGGCUGUGGGUAGACUGCA	0
GGCAGAGCUCGACACGGUGUAGCAAAGUGUCUGUGGCUAGACUGCC	0.01
GGCAGAGCUCGACACACCGUGGCAAAGUAGCUGUGCCUCGACUGCC	0
GGCAGAGCUCGACACUGCGUGGCUAAGUGGCUGUGGCUAGACUGCC	0
GGCAGAGCUCGACACAGCGUGGGAAAGUGGCUGUGGCCAGACUCCC	0
GGCAGAGCUCGACACAGCGUGGCAUAGUGGCUGUGGCAAGAAGGCC	0
GGCAGAGCUCGACACAGCGUGGCCAGGUGGCCGUGGUUGGACUGCC	0
GGCAGAGCUCGACACAGCGUGGCAAAGUGGCUGUGGAAAGACUGCC	0
GGCAGAGCUCGACAUAGCGUGGCAAAGGGGCUGUGGCUUGACUGCC	0.01
GGCAGAGCUCGACACAGCGUGGCAAGGUGGCUUGGGCUAGACAGCG	0.01
GGCAGAGCUCGACACUGCGUGGCAAAGUGGCUGUGGCUCUACUGCC	0.01
GGCAGAGCUCGACACAGCGUGGCACAAUCGCUGAGGCUAGACUUCC	0.01
GGCAGAGCUCGACACACCGAGGCAAAGUGGCUGUGGAUAGACUGCC	0.01
GGCAGAGCUCGAAACCGCGUGGCAAAGUGGCUGUGGCUAGACUGCC	0.05

Variant	self-cleavage
GGCAGAGCUCGACACAGCGUGGCAGAUUGGCUGUGGCUAGACUGCC	0.01
GGCAGAGCUCGACACAGCGUGGCAACGUUGCUGGGGCUAGACUGCC	0.01
GGCAGAGCUCGACACAUCGUGGCAAAGUGGCUGUGGCUAGACUGCA	0.02
GGCAGAGCUCGACACAGUGUGGGAAAGAGGCUGUGGCUAGACUGCC	0.02
GGCAGAGCUCGACUCAGCGUGGCAGAGUGCCUGUGGCUUGACUGCC	0.05
GGCAGAGCUCGGUACAGUGUGGAAACGUGACUGUGGCUAGACUGCC	0
GGCAGAGCUCGACACAGCGUGGCAAGGAGGCUGUGGCUAGACUGCC	0
GGCAGAGCUCGACAAAGCGUGGCAAAGUGGCUCUGGCUAGACUGCC	0.03
GGCAGAGCUCGGCACAGGGUGGCAAAAUGGCUGUUGCUAGGCUGCC	0.01
GGCAGAGCUCGACAGAGCGUGGCAAAGUGGCUGUGGCUAGAUUGCC	0.01
GGCAGAGCUCGUCACAGCGUGGCAAAGUAUCUGUGGCUAGACCGCC	0.02
GGCAGAGCUCGACACAGCGUGGCAAAGUGGAUGUUGCUAGACUGCC	0.03
GGCAGAGCUCGACAAAGAGUGGCAAAGUGGCUGUGCCUAGACUGCC	0
GGCAGAGCUCGUCCCAGCGUGGCAAAGUGGCUGUGGCUGGACUGCC	0.02
GGCAGAGCUCGACCCAGCGUGGCAAAGAGGCUGUGGCUAGACUGCC	0.01
GGCAGAGCUCGAAACUGCGUGGCAAAGUGGCUGUGGCUACACUGCC	0.02
GGCAGAGCUCGAAACAGCGUGGUAAAGUGGUUGUGGCUAGACUGCC	0.03
GGCAGAGCUCGAGACAGCGAGGCAAAGUGGCUGUGUCUAGACUGCC	0.02
GGCAGAGCUCGACACAGCGUGGUAAAGGGGCUGUGGCUAGAAUGCC	0
GGCAGAGCUCGACACAGCGUGGCAAAGUGGAUUUGGCUAGACUGCC	0.01
GGCAGAGCUCGAGAUAGCGUGGCACAGUGGCUGUGGCUGUACUGCC	0.04
GGCAGAGCUCGAUACUGCGAGCUAAAGUCGACGUGGCUAGACUGCC	0
GGCAGAGCUCGACACACAGUGGCAACGUUGGUGUGGCUAGACUGCC	0.02

Variant	self-cleavage
GGCAGAGCUCGACAAAGCGUGGCAAAGUGGCUGUGGCCAAACUGCU	0.01
GGCAGAGCUCGACAUAGCGUGGCAAAGUGGCUGUGGCUAGACUUCC	0.02
GGCAGAGCUCCACACAGCGUGGCAAAGUGGCUGUGGCUAGACAGGC	0.01
GGCAGAGCUCGAUACAGCGUGGCAAAGUGGCUGUGGCAAGACUGCC	0.02
GGCAGAGCUCGACACAGCGUGGAAAAGUGGCUCUGGCAAGACUGCC	0
GGCAGAGCUCGACAAAGCGUGGCAAAGUGGCUGUGACUAGACUGCC	0.02
GGCAGAGCUCGACACAGCGUGGCUAAGUGGCUGUGGCUAGACUCCA	0.07
GGCAGAGCUCGACACAACGUGGCAAAGUGGCUGGGGCUAGCCUGCC	0.04
GGCAGAGCUCGACCUAGCGUGGCAAAGUGGCUGUGGCUAGACUGCC	0.03
GGCAGAGCUCGAGACAGCGUGGGAAAGUGGCCGUGGCUAGACUGCC	0
GGCAGAGCUCGAUACCGCGUGGCAAAGUGACUGUGGCUAGACUACC	0.03
GGCAGAGCUCGACACAGAGUGGCAAAGUGGUUGUGGCUAGACUGAC	0
GGCAGAGCUCGACACCGAGUGACAAAGUGGCUGUGGCUAGACUGCC	0
GGCAGAGCUCGACACAGCGUGGCAUAGUUGCUGUGUCUAGACUGCU	0.02
GGCAGAGCUCGACACAGCGUGGCAUAGUGGCUGUGGCUACACUGCU	0
GGCAGAGCUCGUAACAGCAUGGCAAAGUAGCUGUGGCUAGACUGCC	0
GGCAGAGCUCGACACAGCGUGGCAAAGUGGAUGUGUCUAGACUGCC	0.01
GGCAGAGCUCGACACAUCGUGGCCAAGUGGCUGUGGCUAGACUGCC	0.02
GGCAGAGCUCGAUACAGCGUGACAAAGUAGCGGUGGCUAGGUUCCC	0.01
GGCAGAGCUCGACUAAGCGUGGCAUAGUGGGUGUGGCUAGACUGCC	0.01
